Data: paper PMC5429092, “PPP1R15A-mediated dephosphorylation of eIF2α is unaffected by Sephin1 or Guanabenz” (eLife, 2017)

Target: PP1 (PP1G 1–323, full-length PP1 phosphatase catalytic subunit) (UniProt P63087)
Test: cell-based or functional assay

UniProt P63087, sequence (P63087 whole entry): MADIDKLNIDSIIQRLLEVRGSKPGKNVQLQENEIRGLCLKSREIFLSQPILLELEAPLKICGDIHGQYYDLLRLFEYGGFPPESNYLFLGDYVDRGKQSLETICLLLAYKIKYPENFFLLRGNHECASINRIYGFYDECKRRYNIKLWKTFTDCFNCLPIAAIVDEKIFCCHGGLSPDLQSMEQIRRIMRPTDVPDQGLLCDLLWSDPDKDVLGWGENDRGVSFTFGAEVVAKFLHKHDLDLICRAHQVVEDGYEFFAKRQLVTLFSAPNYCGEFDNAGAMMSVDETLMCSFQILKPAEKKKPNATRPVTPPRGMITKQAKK

B1: human PPP1R15A^[…]-MBP (domain or fragment)
chain: EAECPPCIPPPSAFLKAWVYWPGEDTEEEEDEEEDEDSDSGSDEEEGEAEASSSTPATGVFLKSWVYQPGEDTEEEEDEDSDTGSAEDEREAETSASTPPASAFLKAWVYRPGEDTEEEEDEDVDSEDKEDDSEAALGEAESDPHPSHPDQRAHFRGWGYRPGKETEEEEAAEDWGEAEPCPFRVAIYVPGEKPPPPWAPPRLPLRLQRRLKRPETPTHDPDPETPLK[… about 80 residues …]APIPALTQTLPS
EC50 of PPP1R15A^325-636 for the initial velocity of eIF2α-P dephosphorylation (PP1 0.625 nM, G-actin 1.5 µM): 5 to 10 nM
